# Like-named read-outs stand apart in the source and are kept apart here.
# Tests used:
# [1] = Solubility in Polysorbate 80 via thermal treatment process
# [2] = Solubility in PEG 400 / PEG 300 via thermal treatment process
# [3] = Nonoxynol-9 concentrates via thermal treatment process; type: physicochemical
# [4] = cited from earlier work
# [5] = Apigenin solubility in nonionic surfactants via high temperature processing method; conditions: thermodynamic from solid
# [6] = Aqueous solution clarity: water added to concentrate vs non-concentrate method
# [7] = Solubility in Ceteareth-20 via thermal treatment process; conditions: thermal treatment >200° C.
# [8] = Supersaturation test by addition of a crystal; conditions: Room Temp., crystal addition
structure (smiles),measurement,setting,value
"O=c1[nH]cc(F)c(=O)[nH]1 [Fluorouracil, reference compound]","PS80 Solubility: amount solubilized, remained solubilized @ Room Temp.",[1]; thermal treatment,10 wt %
same,"PEG400 Solubility: amount solubilized, remained solubilized @ Room Temp.",[2]; thermal treatment,10 wt %
CC(C)CCC[C@@H](C)[C@H]1CC[C@H]2[C@@H]3CC=C4C[C@@H](O)CC[C@]4(C)[C@H]3CC[C@]12C [Cholesterol],Prepared Thermal Treatment Concentrate in PS80,[1]; Table XVII,10 mg/mL
same,Prepared Thermal Treatment Concentrate in PEG-400,[2]; Table XVII,10 mg/mL
same,Prepared Thermal Treatment Concentrate in Nonoxynol-9,[3]; Table XVII,10 mg/mL
"COc1cc(CNC(=O)CCCC/C=C/C(C)C)ccc1O [Capsaicin, reference compound]",Prepared Thermal Treatment Concentrates in PEG-400,[2]; Table XXI,40 mg/mL
"O=c1cc(-c2ccc(O)cc2)oc2cc(O)cc(O)c12 [Apigenin, 4′,5,7,-trihydroxyflavone]",Apigenin Literature Solubility,[4]; Propylene Glycol,1.0 mg/mL
same,Literature Solubility in H2O @ 25° C.,[4]; Table XV,0.001 mg/mL
same,Literature Solubility in H2O @ 25° C.,[4]; Table XVI,0.001 mg/mL
same,SOLUBLE CONC. RANGE (% wt/wt),"[1]; PS80, 1. Thermal Treatment method",4-6%
same,Prepared Thermal Treatment Concentration in Polysorbate 80,[1]; Table XV,30 mg/mL
same,solubility,"[1]; polysorbate 80, organic solvent or mixture, thermodynamic from solid",40 to 60 mg/mL
same,DPSI PS80 Sol. Data,[1]; thermal treatment,35 to 45 mg/mL
same,Jordi PS800 Results,"[1]; thermal treatment, Table III",40.5 mg/mL
same,PS80 Sol. Conc. -,"[1]; thermal treatment, Table III",40 to 60 mg/mL
same,solubility,"[5]; Span 20, organic solvent or mixture",~10 mg/mL
same,solubility,"[5]; Span 80, organic solvent or mixture",~8 mg/mL
same,solubility,"[5]; nonoxynol-9, organic solvent or mixture",~30 mg/mL
same,solubility,"[5]; polysorbate 20, organic solvent or mixture",~25 mg/mL
same,solubility,"[5]; polysorbate 60, organic solvent or mixture",~15 mg/mL
same,solubility,"[5]; polysorbate 80, organic solvent or mixture",~50 mg/mL
same,solubility,"[5]; propylene glycol, organic solvent or mixture",~1 mg/mL
same,Comments when 17 ml of H2O was added to 3 gms of the concentrate,[6]; Nonoxynol-9 concentrate,A clear soln formed.
same,Comments when 17 ml of H2O was added to 3 gms of the concentrate,[6]; Polysorbate 80 concentrate,A clear soln formed.
same,Flavonoid in Solvent -,"[2]; PEG-400, HPLC, thermal treatment concentrate",34.8 mg/mL
same,Jordi PEG400 Results,"[2]; thermal treatment, Table III",34.6 mg/mL
same,Conc. In Ceteareth-20,[7],~10000 µg/mL
same,Prepared Thermal Treatment Concentration in Nonoxynol-9,[3]; Table XVI,30 mg/mL
same,supersaturation in Ceteareth-20,[8],%. Not Super Saturated at Room Temp. via crystal
